# From PMC4336329 (PLoS ONE, 2015)
# Hit rate of the full screen: of about 310,000 compounds, about 14,000 (4.5%) showed an effect of 50% or more. The effect is printed as a negative number. The list shows a part of the results.
# Biological target: human ether-à-go-go-related gene (hERG) potassium channel (human, UniProt Q12809)
# Experiment: primary screen, population patch clamp on CHO cells stably expressing hERG
# 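Further: peak tail current of the secondary pulse compared with the same well before compound.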
# Sequence of human ether-à-go-go-related gene (hERG) potassium channel (Q12809 whole entry, looked up): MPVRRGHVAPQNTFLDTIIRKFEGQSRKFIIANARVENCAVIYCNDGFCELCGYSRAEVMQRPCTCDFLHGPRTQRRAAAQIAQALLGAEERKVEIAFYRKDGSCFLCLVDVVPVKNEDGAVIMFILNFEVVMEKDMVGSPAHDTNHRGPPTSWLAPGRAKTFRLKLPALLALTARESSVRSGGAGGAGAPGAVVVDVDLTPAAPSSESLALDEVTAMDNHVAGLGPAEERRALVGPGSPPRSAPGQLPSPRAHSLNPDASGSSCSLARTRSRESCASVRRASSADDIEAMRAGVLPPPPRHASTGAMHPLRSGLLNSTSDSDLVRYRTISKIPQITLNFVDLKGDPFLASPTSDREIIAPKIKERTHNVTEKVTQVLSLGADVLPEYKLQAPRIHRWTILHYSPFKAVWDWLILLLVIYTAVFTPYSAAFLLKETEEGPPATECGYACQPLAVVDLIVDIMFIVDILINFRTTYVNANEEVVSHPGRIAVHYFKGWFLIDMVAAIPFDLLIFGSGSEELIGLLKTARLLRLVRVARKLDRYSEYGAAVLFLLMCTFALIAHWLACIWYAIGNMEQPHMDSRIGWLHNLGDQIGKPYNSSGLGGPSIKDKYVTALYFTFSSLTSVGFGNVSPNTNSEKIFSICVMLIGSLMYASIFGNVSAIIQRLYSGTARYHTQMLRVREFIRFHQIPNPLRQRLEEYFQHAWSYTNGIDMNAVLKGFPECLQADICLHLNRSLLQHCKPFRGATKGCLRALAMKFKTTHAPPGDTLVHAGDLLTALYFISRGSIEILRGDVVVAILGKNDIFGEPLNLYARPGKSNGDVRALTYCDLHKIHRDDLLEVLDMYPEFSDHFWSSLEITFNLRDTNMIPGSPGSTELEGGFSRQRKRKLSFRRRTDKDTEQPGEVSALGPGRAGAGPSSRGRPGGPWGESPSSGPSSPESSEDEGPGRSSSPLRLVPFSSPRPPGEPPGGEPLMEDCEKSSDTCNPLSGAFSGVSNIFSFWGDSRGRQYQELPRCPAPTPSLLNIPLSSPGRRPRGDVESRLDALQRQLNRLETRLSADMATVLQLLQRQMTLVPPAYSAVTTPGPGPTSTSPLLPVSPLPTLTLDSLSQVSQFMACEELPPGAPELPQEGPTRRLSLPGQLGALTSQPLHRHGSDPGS
row,Compound,"hERG current change (%, negative = inhibition) at 10uM [%]"
1,Cc1cccc(NC(=O)C2CC(=O)NC(Nc3nc4ccccc4s3)=N2)c1 (stereo not shown),12.2
2,COCc1cc(C)nc(SCc2nc3ccccc3c(=O)[nH]2)c1C#N,-1.85
3,Cc1ccc(-n2ccnc2SCC(=O)c2c(N)n(C3CC3)c(=O)[nH]c2=O)cc1C,15.1
4,CN(C)c1nnnn1-c1ccc(Oc2ncc(C(F)(F)F)cc2Cl)cc1,-20.1
5,Cc1ccc(S(=O)(=O)N2CCC(C(=O)Nc3ccc(S(=O)(=O)N4CCCC4)cc3)CC2)cc1,-10.6
6,CCCCCOc1ccc(NC(=O)CCCC(=O)O)cc1,1.26
7,O=C1C=C(O)C(n2cncn2)C(c2cc(F)ccc2F)C1 (stereo not shown),23.4
8,CCCCC(NC(=O)CCc1c(C)c2cc3c4c(oc3c(C)c2oc1=O)CCCC4)C(=O)O (stereo not shown),8.88
9,COc1ccc(C(=O)NC2CCCCCC2)cc1S(=O)(=O)Nc1ccc(Br)cc1,-8.4
10,Nc1ccc(C(=O)Nc2ccc3nc(-c4ccncc4)[nH]c3c2)cc1,42.6
11,Cc1ccc(S(=O)(=O)NC(=O)NN2CCCCCC2)cc1,7.42
12,Cn1cnc([N+](=O)[O-])c1Sc1ccc([N+](=O)[O-])cc1,-62.1
13,CCOC(=O)N1CCc2c(sc(NC(=O)Cc3ccccc3)c2C(=O)c2ccc(OC)cc2)C1,13.7
14,CCc1cc2c(NCC3CCCO3)ncnc2s1 (stereo not shown),-14.9
15,COc1ccc(CN(Cc2ccccn2)S(=O)(=O)c2ccc(-n3cnnn3)cc2)cc1,-72.7
16,COCc1cc(=O)[nH]c(N2CCN(C(=O)c3ccco3)CC2)n1,19.8
17,CCN(C(=O)Cn1cnc2cc([N+](=O)[O-])ccc2c1=O)C1CCS(=O)(=O)C1 (stereo not shown),1.53
18,Cc1noc(C(=O)N2CCN(Cc3ccc4c(c3)OCO4)CC2)c1Cl,-8.33
19,COc1nc(N)nc2nc[nH]c12,7.8
20,CC(=O)c1ccc(OCCCC(=O)Nc2cccc(S(=O)(=O)N3CCCCC3)c2)cc1,-37.3
21,O=C1NCCN(C(=O)CCc2nnc(-c3ccsc3)o2)C1c1ccc(F)cc1 (stereo not shown),-11.8
22,O=C1NC[C@@H](Cc2cccc3ccccc23)N(CCc2cc(C(F)(F)F)cc(C(F)(F)F)c2)C1=O,20.4

row,Compound,"hERG current change (%, negative = inhibition) at 10uM [%]"
1,CCOc1ccc(NC(=O)C[n+]2ccccc2)cc1.[Cl-],6.98
2,CCOC(=O)c1c(C)nc2ccc(C)cn12,-0.761
3,Cc1cc(C)n(C(=O)c2cc3sccc3[nH]2)n1,1.84
4,C#Cc1ccc([C@H]2C=C(C(=O)N3CCN(Cc4ccccc4)CC3)O[C@@H](OCc3ccc(CO)cc3)C2)cc1,-13.3
5,Cc1cc(C(=O)COC(=O)CN(C)S(=O)(=O)c2ccc(Cl)cc2)c(C)n1CC1CCCO1 (stereo not shown),-55.2
6,COc1ccc(F)cc1S(=O)(=O)N1CCN(Cc2ccc3c(c2)OCO3)CC1,-10.7
7,COc1ccc(S(=O)(=O)NNC(=O)C2CC(c3cccnc3)=NO2)cc1 (stereo not shown),26.6
8,Cc1cc(C(=O)Nc2ccccc2Cc2ccccc2)no1,-9.09
9,CCCC(C(=O)OCCN(CC)CC)(c1ccccc1)c1ccccc1.Cl,-53.9
10,COc1ccc(-c2c(C3=CCCCC3)oc3ccc(-c4ccc5c(c4)OCO5)cc23)cn1,12.8
11,NC(=O)c1ccc(-n2nnnc2SCc2ccccc2)cc1,8.34
12,N/C(Cc1ccc([N+](=O)[O-])cc1)=N\OC(=O)COc1ccccc1Cl,-21.2
13,Cn1c2ccccc2c2cc(C(=O)OCC(=O)N3CC(=O)Nc4ccccc43)sc21,6.25
14,COc1ccc(Oc2cc(NN3CCCCC3)c([N+](=O)[O-])cc2[N+](=O)[O-])cc1OC,-6.43
15,COc1ccc(-c2cnn(C3CCS(=O)(=O)C3)c2N)cc1 (stereo not shown),10.1
16,COc1ccccc1CC(NC(C)=O)C(=O)NC1CCN(C(=O)Nc2ccccc2F)CC1 (stereo not shown),28.3
17,CC(C)Oc1snc(Cl)c1C(N)=O,12
18,COc1ccc(N2CCN(C(=O)CSc3ncnc4scc(-c5ccc(C)cc5)c34)CC2)cc1,-0.0765
19,CCOc1cc(-c2nc(C)c(C(C)=O)n2O)ccc1OCC(=O)Nc1ccc(F)cc1,-0.582
20,O=S(=O)(CCc1nc2ccccc2o1)c1ccc(Cl)cc1,-7.14
21,O=c1ccn(Cc2ccccc2)c(=O)n1Cc1ccccc1,-7.89
22,CCOC(=O)C1=C(N)N(c2ccccc2Oc2ccccc2)C(=O)C1,11.8

row,Compound,"hERG current change (%, negative = inhibition) at 10uM [%]"
1,Cc1ccc2cc(CCNC(=O)c3ccc4c(c3)OCO4)c(=O)[nH]c2c1C,4.17
2,CC(=O)NS(=O)(=O)c1ccc(NC(=O)c2cc(-c3cccs3)nc3ccccc23)cc1,16.2
3,Cc1ccc(NC(=O)CCCC(=O)OC(C)C(=O)c2ccccc2)cc1 (stereo not shown),2.74
4,CC(C)(C)C(=O)CSc1nc(N)cc(=O)[nH]1,15.2
5,O=C1C2C3C=CC(CC3)C2C(=O)N1c1nccs1 (stereo not shown),0.689
6,NC(=O)c1ccnc2c(O)cccc12.O=C(O)C(F)(F)F,1.46
7,Cc1nn(Cc2ccc(C(=O)NN)cc2)c(C)c1Cl,7.14
8,CC(C)CC(CCc1ccccc1)OS(N)(=O)=O (stereo not shown),5.18
9,COc1ccc(Cc2nnc(SCC(=O)N3CCc4ccccc4C3)o2)cc1,-14.2
10,CCn1c(=S)[nH]c2nc3c(cc2c1=O)CCCC3,7.57
11,CCCCOc1ccc(C(=O)Nc2ccc(OCC(=O)N3CCOCC3)cc2)cc1,20.9
12,CCOCCCNC(=S)N1CCC(NC(=O)c2ccco2)CC1,-9.7
13,CC(=O)Nc1ccc(S(=O)(=O)Nc2ncccn2)cc1,-3.24
14,c1ccn2c(Cc3nnc4ccccn34)nnc2c1,-0.74
15,COc1ccc2c(c1)C(=O)N(c1ccccc1)C(=O)C2,8.85
16,COc1ccc(C2=CC(=O)C[C@H](c3ccc4c(c3)OCO4)C2)cn1,5.43
17,Cc1cccc(OCc2nnc(SCC(=O)O)n2Cc2ccccc2)c1,28.1
18,O=[N+]([O-])c1ccc(/C=C/c2nc3ccc([N+](=O)[O-])cc3[nH]2)cc1,-23.1
19,O=c1c(CN2CCN(Cc3ccccc3F)C(CCO)C2)coc2ccccc12 (stereo not shown),-3.11
20,O=C(NNC(=O)C1CCC(C(=O)NNC(=O)c2cccs2)CC1)c1cccs1 (stereo not shown),7.92
21,CSc1nc(Oc2ccc(=O)n(C)n2)nc(N(C)C)n1,9.21
22,COc1ccccc1-c1cc(C(=O)N/N=C\c2cnn(C)c2C)c2ccccc2n1,-3.85

row,Compound,"hERG current change (%, negative = inhibition) at 10uM [%]"
1,COc1ccc(NC(C)=O)cc1NC(C)C(=O)Nc1cccc2ccccc12 (stereo not shown),6.32
2,CC1COC(c2cccn2Cc2ccccc2Cl)=N1 (stereo not shown),3.84
3,Cc1c(C(=O)N2CCCc3ccccc32)sc2nc(-c3ccccc3)cn12,-3.24
4,Brc1ccc(OCc2nnnn2-c2ccccc2)cc1,11.3
5,COc1cc(C)ccc1OCc1cc(C(=O)NCCN2CCOCC2)no1,2.08
6,CSCCC(NC(=O)COc1ccccc1)C(=O)N(C)Cc1ccc(Cl)cc1Cl (stereo not shown),-24.5
7,COc1ccc(CCNC(=O)Cn2cnc3c(cnn3-c3ccccc3Cl)c2=O)cc1OC,-1.24
8,C=CCNC(=S)NCCCCC1NC(=S)N(CC=C)C1=O (stereo not shown),13.2
9,O=C(COc1ccccc1)Nc1ccc(C(=O)N2CCCC2)cc1,8.44
10,CC(C)(Oc1ccc(Cl)cc1)C(=O)N1CCN(c2ccccn2)CC1,-32
11,O=C(c1ccccc1)N1N=C(c2ccccc2)CC1c1ccc2nccnc2c1 (stereo not shown),-28.7
12,O=C1CS/C(=N/N=C2CCCC2)N1,9.21
13,Cc1ccc(N2CN(CCC3=CCCCC3)CNC2=S)cc1,18
14,O=C(NCCCNC1CCCCC1)c1ccc(/C=N/O)nc1,-10.9
15,CCOC(=O)Oc1ccc2oc(C)c(C(=O)OCCOC)c2c1,-7.01
16,COc1ccc(OC)c(CNC(=O)CCn2c(=O)c3cccn3c3ccc(F)cc32)c1,-62.2
17,CCOC(=O)C(=N/O)/C(C)=N/NC(=O)C(=O)Nc1ccc(Cl)cc1,-4
18,O=C(NCc1cccnc1)Nc1ccc([N+](=O)[O-])cc1,4.63
19,Cc1nc2c(C)cccn2c1/C(O)=C1\C(=O)C(=O)N(CCN2CCOCC2)C1c1ccncc1 (stereo not shown),6.97
20,O=C(COn1nnc2ccc(Cl)cc21)NCc1ccccc1,-1.03
21,Cc1ccc(C(=O)NCC(=O)Nc2ccncc2)s1,12.6
22,O=C(NCCCN1CCOCC1)c1ccccc1NS(=O)(=O)c1cc([N+](=O)[O-])ccc1Cl,-27.3
